Test results reported in EPA's CvTdb concentration-time database.
This continues a long series; more values of the same kind are listed elsewhere.

Experiments:
Rat [1] = test: concentration in brain after dosing; conditions: 6 h; dosed: 2-Methyltetrahydrofuran; 100 mg/kg; oral; Female; Harlan Sprague Dawley
Rat [2] = test: concentration in plasma after dosing; conditions: 1 h; dosed: 2-Methyltetrahydrofuran; 30 mg/kg; oral; Male; F344
Rat [3] = test: concentration in brain after dosing; conditions: 0.5 h; dosed: 2-Methyltetrahydrofuran; 10 mg/kg; iv; Female; F344
Rat [4] = test: concentration in brain after dosing; conditions: 20 min; dosed: 2-Methyltetrahydrofuran; 10 mg/kg; oral; Male; F344
Rat [5] = test: concentration in brain after dosing; conditions: 20 min; dosed: 2-Methyltetrahydrofuran; 30 mg/kg; oral; Male; F344
Rat [6] = test: concentration in brain after dosing; conditions: 3 h; dosed: 2-Methyltetrahydrofuran; 30 mg/kg; oral; Female; F344
Rat [7] = test: concentration in brain after dosing; conditions: 1 h; dosed: 2-Methyltetrahydrofuran; 30 mg/kg; oral; Male; F344
Rat [8] = test: concentration in brain after dosing; conditions: 8 min; dosed: 2-Methyltetrahydrofuran; 10 mg/kg; oral; Female; F344
Rat [9] = test: concentration in brain after dosing; conditions: 1.5 h; dosed: 2-Methyltetrahydrofuran; 10 mg/kg; iv; Male; F344
Rat [10] = test: concentration in brain after dosing; conditions: 0.75 h; dosed: 2-Methyltetrahydrofuran; 10 mg/kg; oral; Female; F344
Rat [11] = test: concentration in plasma after dosing; conditions: 8 min; dosed: 2-Methyltetrahydrofuran; 30 mg/kg; oral; Female; F344
Rat [12] = test: concentration in plasma after dosing; conditions: 2 h; dosed: 2-Methyltetrahydrofuran; 10 mg/kg; iv; Male; F344
Rat [13] = test: concentration in plasma after dosing; conditions: 1 h; dosed: 2-Methyltetrahydrofuran; 10 mg/kg; oral; Female; F344
Rat [14] = test: concentration in plasma after dosing; conditions: 1 h; dosed: 2-Methyltetrahydrofuran; 10 mg/kg; iv; Female; F344
Rat [15] = test: concentration in brain after dosing; conditions: 1.5 h; dosed: 2-Methyltetrahydrofuran; 400 mg/kg; oral; Female; Harlan Sprague Dawley
Rat [16] = test: concentration in brain after dosing; conditions: 1.5 h; dosed: 2-Methyltetrahydrofuran; 30 mg/kg; oral; Female; F344
Rat [17] = test: concentration in brain after dosing; conditions: 10 min; dosed: 2-Methyltetrahydrofuran; 400 mg/kg; oral; Male; F344
Rat [18] = test: concentration in brain after dosing; conditions: 2 h; dosed: 2-Methyltetrahydrofuran; 30 mg/kg; oral; Male; F344
Rat [19] = test: concentration in plasma after dosing; conditions: 3 h; dosed: 2-Methyltetrahydrofuran; 10 mg/kg; iv; Female; F344
Rat [20] = test: concentration in plasma after dosing; conditions: 0.25 h; dosed: 2-Methyltetrahydrofuran; 10 mg/kg; oral; Male; F344
Rat [21] = test: concentration in plasma after dosing; conditions: 0.25 h; dosed: 2-Methyltetrahydrofuran; 10 mg/kg; iv; Male; F344
Rat [22] = test: concentration in brain after dosing; conditions: 10 min; dosed: 2-Methyltetrahydrofuran; 100 mg/kg; oral; Male; Harlan Sprague Dawley
Rat [23] = test: concentration in plasma after dosing; conditions: 5 min; dosed: Bromochloroacetic acid; 10 mg/kg; iv; Male; F344
Rat [24] = test: concentration in plasma after dosing; conditions: 5 min; dosed: Bromochloroacetic acid; 10 mg/kg; iv; Male; F344; remark: listed apart in the source
Rat [25] = test: concentration in plasma after dosing; conditions: 0.75 h; dosed: Bromochloroacetic acid; 100 mg/kg; oral; Female; F344
Rat [26] = test: concentration in plasma after dosing; conditions: dosed: Bromochloroacetic acid, 100 mg/kg, oral, Male, F344
Rat [27] = test: concentration in plasma after dosing; conditions: 20 min; dosed: Bromochloroacetic acid; 10 mg/kg; iv; Male; F344
Rat [28] = test: concentration in plasma after dosing; conditions: dosed: Bromochloroacetic acid, 80 mg/kg, iv, Male, F344
Rat [29] = test: concentration in plasma after dosing; conditions: 1 h; dosed: Fluorotelomer alcohol 8+2; 24 mg/kg; oral; Male; Harlan Sprague Dawley
Rat [30] = test: concentration in plasma after dosing; conditions: dosed: Fluorotelomer alcohol 8+2, 48 mg/kg, oral, Male, Harlan Sprague Dawley
Rat [31] = test: concentration in plasma after dosing; conditions: dosed: Fluorotelomer alcohol 8+2, 48 mg/kg, oral, Male, Harlan Sprague Dawley; remark: listed apart in the source
Rat [32] = test: concentration in plasma after dosing; conditions: dosed: Formamide, 600 mg/kg, oral, Female, Harlan Sprague Dawley
Rat [33] = test: concentration in plasma after dosing; conditions: dosed: Formamide, 36 mg/kg, oral, Female, Harlan Sprague Dawley
Rat [34] = test: concentration in plasma after dosing; conditions: 1 h; dosed: Formamide; 300 mg/kg; oral; Female; F344
Rat [35] = test: concentration in plasma after dosing; conditions: 20 min; dosed: Pyridine; 200 mg/kg; oral; Female; F344
Rat [36] = test: concentration in plasma after dosing; conditions: 0.25 h; dosed: Pyridine; 0.5 mg/kg; iv; Male; F344
Rat [37] = test: concentration in plasma after dosing; conditions: 10 min; dosed: Pyridine; 200 mg/kg; oral; Female; Harlan Sprague Dawley
Rat [38] = test: concentration in plasma after dosing; conditions: 20 min; dosed: Pyridine; 200 mg/kg; oral; Female; Harlan Sprague Dawley
Rat [39] = test: concentration in plasma after dosing; conditions: 2 h; dosed: Pyridine; 50 mg/kg; oral; Male; Harlan Sprague Dawley

Compound: CC1CCCO1 (stereo not given) [2-Methyltetrahydrofuran]
- concentration in brain (Rat [1]): 1.02 µg/g
- concentration in plasma (Rat [2]): 15700 ng/mL
- concentration in brain (Rat [3]): 2.7 µg/g
- concentration in brain (Rat [4]): 2.43 µg/g
- concentration in brain (Rat [5]): 14.4 µg/g
- concentration in brain (Rat [6]): 0.253 µg/g
- concentration in brain (Rat [7]): 6.79 µg/g
- concentration in brain (Rat [8]): 3.91 µg/g
- concentration in brain (Rat [9]): 0.582 µg/g
- concentration in brain (Rat [10]): 0.719 µg/g
- concentration in plasma (Rat [11]): 17600 ng/mL
- concentration in plasma (Rat [12]): 209 ng/mL
- concentration in plasma (Rat [13]): 705 ng/mL
- concentration in plasma (Rat [14]): 1280 ng/mL
- concentration in brain (Rat [15]): 94.1 µg/g
- concentration in brain (Rat [16]): 3.42 µg/g
- concentration in brain (Rat [17]): 134 µg/g
- concentration in brain (Rat [18]): 2.18 µg/g
- concentration in plasma (Rat [19]): 33.5 ng/mL
- concentration in plasma (Rat [20]): 2990 ng/mL
- concentration in plasma (Rat [21]): 9640 ng/mL
- concentration in brain (Rat [22]): 43.5 µg/g

Compound: O=C(O)C(Cl)Br (stereo not given) [Bromochloroacetic acid]
- concentration in plasma (Rat [23]): 13700 ng/mL
- concentration in plasma (Rat [24]): 10700 ng/mL
- concentration in plasma (Rat [25]): 52600 ng/mL
- concentration in plasma (Rat [26]; 5 min): 4320 ng/mL
- concentration in plasma (Rat [26]; 3 h): 12300 ng/mL
- concentration in plasma (Rat [27]): 1590 ng/mL
- concentration in plasma (Rat [28]; 1 h): 24700 ng/mL
- concentration in plasma (Rat [28]; 3 h): 1070 ng/mL

Compound: OCCC(F)(F)C(F)(F)C(F)(F)C(F)(F)C(F)(F)C(F)(F)C(F)(F)C(F)(F)F [Fluorotelomer alcohol 8+2]
- concentration in plasma (Rat [29]): 361 ng/mL
- concentration in plasma (Rat [30]; 1 h): 835 ng/mL
- concentration in plasma (Rat [30]; 24 h): 5.95 ng/mL
- concentration in plasma (Rat [31]; 0.5 h): 527 ng/mL
- concentration in plasma (Rat [31]; 9 h): 72.4 ng/mL

Compound: NC=O [Formamide]
- concentration in plasma (Rat [32]; 0.25 h): 514000 ng/mL
- concentration in plasma (Rat [32]; 5 h): 744000 ng/mL
- concentration in plasma (Rat [33]; 10 min): 27500 ng/mL
- concentration in plasma (Rat [33]; 20 h): 12300 ng/mL
- concentration in plasma (Rat [34]): 184000 ng/mL

Compound: c1ccncc1 [Pyridine]
- concentration in plasma (Rat [35]): 102000 ng/mL
- concentration in plasma (Rat [36]): 302 ng/mL
- concentration in plasma (Rat [37]): 94200 ng/mL
- concentration in plasma (Rat [38]): 90200 ng/mL
- concentration in plasma (Rat [39]): 29000 ng/mL
